From article PMC10853778 (Nucleic Acids Research, 2022)

Biological target: T1, RTEL1 tandem harmonin homology domains HHD1+2 (residues 886-1140) (human, UniProt Q9NZ71-6 886-1140)
T1 construct: RTEL1, human, residues 886-1140 (HHD1, linker, HHD2) of Uniprot Q9NZ71-6; pET-28a(+), NdeI/XhoI; uniformly 15N-labelled where it was the observed partner; also called HHD1-linker-HHD2; source: E. coli Rosetta (DE3), purified (Ni-NTA, heparin, SEC); not shown: His6, N-terminal, kept
T1 sequence (looked up): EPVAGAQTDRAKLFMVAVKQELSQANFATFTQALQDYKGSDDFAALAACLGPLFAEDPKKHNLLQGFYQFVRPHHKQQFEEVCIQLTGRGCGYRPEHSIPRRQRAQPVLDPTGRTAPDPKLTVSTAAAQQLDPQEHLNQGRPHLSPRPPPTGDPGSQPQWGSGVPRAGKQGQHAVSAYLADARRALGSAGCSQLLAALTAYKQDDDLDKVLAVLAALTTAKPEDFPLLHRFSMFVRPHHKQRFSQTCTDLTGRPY
Assay: NMR titration; 15N-labelled partner titrated with unlabelled partner; 1H-15N HSQC, 25°C, 20 mM Tris-HCl pH 7.4, 50 mM NaCl, 2 mM DTT, 0.02% NaN3; Kd and Koff from TITAN 2D lineshape analysis, two-state model
Settings: both partners purified

B1: RPA 32C winged-helix domain ([…] of RPA32) (domain or fragment)
chain: not shown
notes: RPA32 (RPA2), human, […] (winged-helix 32C domain); pET-15b; uniformly 15N-labelled where it was the observed partner; source: E. coli BL21(DE3) pLysS, purified (Ni-NTA, Q column, SEC); not shown: His6, N-terminal, kept
binding result: binds
